Reference: paper PMC5179494 (Molecular Cell, 2016)

Biological target: T1, TaqDarG-macro (Thermus aquaticus, UniProt P0DV57)
T1 construct: gene darG
Conditions: active site; product complex

T1 sequence (P0DV57 1-155): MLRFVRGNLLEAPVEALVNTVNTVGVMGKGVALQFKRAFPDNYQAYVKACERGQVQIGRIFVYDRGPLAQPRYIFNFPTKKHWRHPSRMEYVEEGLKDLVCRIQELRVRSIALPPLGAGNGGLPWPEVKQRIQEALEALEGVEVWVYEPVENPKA

With `Nc1ncnc2c1ncn2[C@@H]1O[C@H](COP(=O)(O)OP(=O)(O)OC[C@H]2OC(O)[C@H](O)[C@@H]2O)[C@@H](O)[C@H]1O` (stereo partly shown) [ADPr] the “X-ray crystal structure, 2.50 A” value was “ADPr moiety in ADPr-TaqDarG-macro forms hydrogen bonds with N8, L9 T20, N22”.
